{"source": "patent US12485192B2", "about": "“Cellular targeted label delivery system” (CELLIS AG, priority 2016, dated 2025)", "molecules": {"B1": {"name": "complex comprising haemoglobin and label: haemoglobin covalently or non-covalently bound to a label (conjugate, UniProt P69905 2-142; P68871 2-147, looked up)", "Hemoglobin subunit alpha": "VLSPADKTNVKAAWGKVGAHAGEYGAEALERMFLSFPTTKTYFPHFDLSHGSAQVKGHGKKVADALTNAVAHVDDMPNALSALSDLHAHKLRVDPVNFKLLSHCLLVTLAAHLPAEFTPAVHASLDKFLASVSTVLTSKYR", "Hemoglobin subunit beta": "VHLTPEEKSAVTALWGKVNVDEVGGEALGRLLVVYPWTQRFFESFGDLSTPDAVMGNPKVKAHGKKVLGAFSDGLAHLDNLKGTFATLSELHCDKLHVDPENFRLLGNVLVCVLAHHFGKEFTPPVQAAYQKVVAGVANALAHKYH", "modifications": "label"}}, "test_system": "CD45+ leukocyte cells (macrophages, monocytes, lymphocytes, granulocytes)", "test": "Uptake of iron binding proteins by CD45+ leukocyte cells in culture", "assay_type": "cell-based, mouse", "conditions": "comparison between leukocyte subtypes", "protocol": "Obtained cells are incubated in ferritin solution for a time and at the concentration sufficient to ensure proper ratio of ferritin/cell for their full load and also to ensure proper contrast content to obtain proper imaging). The time and concentration may vary depending on the number of molecules encapsulated/adsorbed into the ferritin cage, status of cell activation, condition and number of their intended administration.\nFor example, to ensure proper load with ferritins, cells are incubated for 1-4 hrs in ferritin solution 0.2 mg/ml in standard culture conditions. The frame of ferritin concentration may vary at least between 0.01 and 4 mg/ml as well as incubation time (5 min-6 hrs or more). Adjusting time and concentration of ferritin load to cells, the influence of ferritin and treatment conditions on cell viability should be minded.\nObtained cells are incubated in haemoglobin solution for a time and at the concentration sufficient to ensure proper ratio of haemoglobin/cell for their full load and also to ensure proper contrast content to obtain proper imaging. The time and concentration may vary depending on the number of molecules linked with the haemoglobin molecule, status of cell activation, condition and number of their intended administration. […]", "data": [{"molecule": "B1", "values": [{"measurement": "relative uptake/loading of complex by leukocyte subtype", "value": "significantly larger amounts of this complex could be loaded into M1 macrophages than into M2 macrophages"}]}]}
